Measured values reported in publication PMC12136788.
Some of the results follow.

T1: UNK ZnF1-3 (human, UniProt Q9C0B0 31-174)
T1 sequence: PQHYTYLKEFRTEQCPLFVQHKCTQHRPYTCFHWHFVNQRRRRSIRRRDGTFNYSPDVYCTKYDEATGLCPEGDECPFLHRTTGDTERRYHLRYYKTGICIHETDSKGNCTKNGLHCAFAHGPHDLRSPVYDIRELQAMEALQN

B1: chr16:94651144:94651145:+_ENSMUSG00000040785_ENSMUST00000117648|mus_mus|FALSE|FALSE (ssRNA)
RNA: GGGAGUUCUACAGUCCGACGAUCCUUCUCUUGGAUCAAGUGACCGAUAACAUAGUCCACUGCUUCAUGGACAAAAUUUUUGCUAGAAAAGCAUGUUGUAUAGUCUUCCGUGCUCAGAACCUUCCAAGAGAGCAGCUCUUUGAGCAACAGAGGAUUGAGCAUCA
B2: chr7:149068622:149068623:-_ENSMUSG00000025139_ENSMUST00000001950|mus_hu|mus_mus_mus_hu_False|8_78 (ssRNA)
RNA: GGGAGUUCUACAGUCCGACGAUCGUGAGGCCUCUGAGUGUGGCUUGUGGUCUGUCCUGUCUGCAGUUUGUUAAUAUCACGGAACAUACCAUCUAGAACGUUCCAGUCCCGCCUGACACCUUCAUUCGCAAGAGGGCAGAAAUCCAACAGAGGAUUGAGCAUCA
B3: chr12:125510211:125510212:+_ENSG00000184992_ENST00000341446|hu_hu|motif|central (ssRNA)
RNA: GGGAGUUCUACAGUCCGACGAUCUUACUGUACAACUAAAUAUGGUUAUAUCCUUUGUUUAAAAAAUAUUUUUUCCCCCACGGAUUACACUUCGUGUGUAGUUCCACGUCAAUGAUCUUUCCGCUCUUCUGGGAAUGUGUCCUACAACAGAGGAUUGAGCAUCA
B4: chr4:148551591:148551592:-_ENSMUSG00000063077_ENSMUST00000060537|mus_hu|mus_mus_mus_hu_False|8_8 (ssRNA)
RNA: GGGAGUUCUACAGUCCGACGAUCACCUGACAAAAUUAAAUAUCCCUGUAAAUUAGACAAUAAGCAGCAGGCAACAAAGUCUUUGCUUUGGAAUAUGUGCCAGGAAAAGUCAUCUUGUUUUUAGAUCACACCUUUCAGUUCACACAACAGAGGAUUGAGCAUCA
B5: chr5:128440902:128440903:+_ENSG00000066583_ENST00000173527|hu_mus|hu_hu_hu_mus_True|8_18 (ssRNA)
RNA: GGGAGUUCUACAGUCCGACGAUCUUGAACGGUGCUGCCAAGUCCUUUGGGGUAUUGUUCCGUUAUGAUAACUGGAAUCCCUAAGAUCCGAGCUCCUUGCAACAGUCUCUGUCCCACGCUAAUAAUAUCCCCAAAAUAUUUGAUCAACAGAGGAUUGAGCAUCA
B6: chr14:49633609:49633610:-_ENSMUSG00000061244_ENSMUST00000162175|mus_hu|FALSE|FALSE (ssRNA)
RNA: GGGAGUUCUACAGUCCGACGAUCUUUGCCUUCUGACAGCAACAUUUUCUAGGAUAAAAACAGUGACAUGUAGUUUUAGAGAAUCUGAAAUUUCUACAUUCAAGAAUGGAAUUAAAAUUCAAUGUGAGGGGAAAAAAGCAAAAUCAACAGAGGAUUGAGCAUCA
B7: chr14:76904430:76904431:+_ENSMUSG00000022010_ENSMUST00000022587|mus_mus|mus_mus_mus_hu_True|18_78 (ssRNA)
RNA: GGGAGUUCUACAGUCCGACGAUCUGCAGCCAAAAACACCCUCGUGGAAAAAAAGAGCAAGCUCCAGCAGCCUUGUAUAAGCUAGAUAAAAUCUUCUGGCUUUCCGCAGCCCAGGGAGUGAGAACGGACGGCAGCCCUAAUUUACAACAGAGGAUUGAGCAUCA
B8: chr14:78183846:78183847:+_ENSG00000119705_ENST00000557342|hu_hu|hu_hu_hu_mus_False|58_68 (ssRNA)
RNA: GGGAGUUCUACAGUCCGACGAUCUCUCAGAAAUCUUUCUUCAUCAGAUGUUUGAGCUCCGUGCAAAAGUUUUGGCCUUCUAGUGUGAACGUGGAUCUAUGGGAGGGAAAGCACUGUCAGAAAAGGUAAUUUUUUUUUUAAAGACAACAGAGGAUUGAGCAUCA
B9: 138089142_138117674_91_3pUTR_ENSG00000044115_ENST00000302763|human|control|control (ssRNA)
RNA: GGGAGUUCUACAGUCCGACGAUCUGAUCUCUAGACUUUUAGGAUCCCACUUGAAGUUUAUGUUGCCUGCAUGGACAGCAGUCAUUUCUGCGGCUAGCUGGGCGAGCGCUAAAUUCCAGAGGCCCGAAGCAGACGGGCGCUGCUCAACAGAGGAUUGAGCAUCA
B10: chr16:18872548:18872549:-_ENSMUSG00000022706_ENSMUST00000023391|mus_mus|FALSE|FALSE (ssRNA)
RNA: GGGAGUUCUACAGUCCGACGAUCCUGGUAGUUAGAGAUAGGUGGUGUGUAAUGUGGCCCUUCUUUCUCGAAGGGGAAUAGGCUGGUAUCCCGCUUUAUGGCCUCGGCAUAGAGCUCUGCAGAUUCAAGUUUCAGCUCCUCCAGCAACAGAGGAUUGAGCAUCA
B11: chr22:19452774:19452775:-_ENSG00000070010_ENST00000399523|hu_hu|hu_hu_hu_mus_False|8_68 (ssRNA)
RNA: GGGAGUUCUACAGUCCGACGAUCCUUCUCAUUGUAGUUGAUAGCAAUCACAUCUCCAGUCGUCAGACAGGCAAAGUUUCUCAAUGCAUUUUCUAAUACCGCUUUAGGGUUGGUAAUAUCCAGGAAGUCAGGGCUCUGAGGCUGCAACAGAGGAUUGAGCAUCA
B12: 117608601_117610917_3654_CDS_ENSMUSG00000025571_ENSMUST00000138299|mouse|control|control (ssRNA)
RNA: GGGAGUUCUACAGUCCGACGAUCCUGCAGAUUAGUGAUUGUGCGCGCAACUUGCUGCUCCUGUUGCCUCAUGGGUCCGGAAACAUUCCGCUGGGCCUGUAACAUCUGCUGCUGGAUUUGUAAACGUUGGUAUGCCAGCUGCAGCAACAGAGGAUUGAGCAUCA
B13: chr2:115689334:115689335:-_ENSMUSG00000027210_ENSMUST00000074285|mus_hu|motif|central (ssRNA)
RNA: GGGAGUUCUACAGUCCGACGAUCCUCUUUGAAGAAGAGUCCCCCAAAAAUAAUAAUAAGAAUUGGCUUAUGAAGCACGAACGGUAAAGAUCUGUUUGAAACUAAAGGACACAUUUAUGGAGGAACAAAGGCCGGGCAUGAAAACAACAGAGGAUUGAGCAUCA
B14: chr11:85023558:85023559:-_ENSMUSG00000018481_ENSMUST00000018625|mus_mus|FALSE|FALSE (ssRNA)
RNA: GGGAGUUCUACAGUCCGACGAUCGCCAUGUUUAGACAGCUUAUCCAUGUAUGUCUGAGCUAAUUUAAAUGUUUCUUCACCUAGAUGAUAUUUACAAUUUCCAUUUCGCACAUGAAGCAACCUCACACAACACUCCACUGCUCGCAACAGAGGAUUGAGCAUCA
B15: chr16:29654537:29654538:+_ENSMUSG00000038084_ENSMUST00000160597|mus_hu|FALSE|FALSE (ssRNA)
RNA: GGGAGUUCUACAGUCCGACGAUCCGUAAUGUGAAGGUUUUAAAAAAAUAAUACAAAGUUCAUUCACAGUGCACAAGUGAAAACAAGGUAAGUUUCAAAUAUCUCAACAACAUAUAGCCAUGAUCAUUCAAAAGGUAAGCAUAUCAACAGAGGAUUGAGCAUCA
B16: chr1:66480114:66480115:+_ENSMUSG00000015222_ENSMUST00000024639|mus_hu|mus_mus_mus_hu_True|48_108 (ssRNA)
RNA: GGGAGUUCUACAGUCCGACGAUCUGGCCUGUGACGGAUGUUCUUCAGAGAGCCACAUUUGGAUGUCACAUGGCUUAGGUCUAUUUUCUUAGUAACAAUUUGUACCUGCCCCCCUUUAGGCUGGUAUUUGAUGUUGUCUGUUGACAACAGAGGAUUGAGCAUCA
B17: chr16:56712917:56712918:-_ENSMUSG00000022757_ENSMUST00000065515|mus_mus|FALSE|FALSE (ssRNA)
RNA: GGGAGUUCUACAGUCCGACGAUCAUAAUCAGCUUCCCACUUAGGUCCAACUGUCCGUUCAUUGUGGAGUCCAGGAUGCUCUAUAUAUACAACUCUAGGGGAAAAAAACCCGCUUGCCGAGGCCGUCCACCUCAGCUGACCCGGCAACAGAGGAUUGAGCAUCA
B18: chr7:150721943:150721944:-_ENSMUSG00000059119_ENSMUST00000072727|mus_mus|FALSE|FALSE (ssRNA)
RNA: GGGAGUUCUACAGUCCGACGAUCCACCUGGAGCUGCUUCAGGGCAUUAAUUCUUCUUUUGACAGCUUUAGGUAAAGUUUCUAUGUAACUAGAAGGAGUGUGAGAGACGUUGUCAAGACGUUCCUGCAAAGCUGCCAGCACUUGCAACAGAGGAUUGAGCAUCA
B19: 87970487_87970607_7243_CDS_ENSG00000188994_ENST00000369577|human|control|control (ssRNA)
RNA: GGGAGUUCUACAGUCCGACGAUCGUGUUGUGAUGUAAAUGCCUUAGAUAAUUUAUGGCACUUAUAAUGUCUAAUUAUAUUGCUUUCACUUGUAACAACUGAAGUACAUCCCUUUAUCAUACAUGGAUACUGGGUUACAAAUCUCAACAGAGGAUUGAGCAUCA
B20: chr2:27535424:27535425:-_ENSG00000115204_ENST00000380044|hu_mus|motif|central (ssRNA)
RNA: GGGAGUUCUACAGUCCGACGAUCUUUGGCCCAAUUGUCCUGGGCUGACAUUCCAUUGAGUAUCCCGACCAGUGGGAGAAAGCAGCCGGGGAAACAUGGGGCAAAGCCCCCCUGAUCUAACAACAUCUUCUUCAGUGCAUGCACCAACAGAGGAUUGAGCAUCA
B21: chr17:65740002:65740003:+_ENSG00000130935_ENST00000581375|hu_hu|hu_hu_hu_mus_False|8_68 (ssRNA)
RNA: GGGAGUUCUACAGUCCGACGAUCAACAAAUCUUUCUUCCCUGGACGAACAGGAAGAUUCAUAUUAACUUUAUAAAAUAUCCAUCAAGUUAGGUGUGGUGGCCACACCUUUACUCCCAGCACUUUGGGAAUAUAAUCUCUGAGUCAACAGAGGAUUGAGCAUCA
B22: chr1:60041781:60041782:+_ENSMUSG00000041040_ENSMUST00000036540|mus_hu|mus_mus_mus_hu_False|18_18 (ssRNA)
RNA: GGGAGUUCUACAGUCCGACGAUCAAGUUUACAAUAGUAAAGUAAAUGCAGUAGUGGCAAAUUUUCUUUUAUUUUCCUUCACAAAAGAAAAUCUUUAUAACCCAGUCCUAGUCUUGGCAGAGAAAGCAGCUAUAAAUUCUGACUCAACAGAGGAUUGAGCAUCA

Each binder was assayed against T1, UNK ZnF1-3 (assay: nsRBNS (natural sequence RNA bind-n-seq); RBNS binding buffer (assumed for nsRBNS): 25 mM Tris pH 7.5, 150 mM KCl, 3 mM MgCl2, 0.01% Triton X-100, 500 ug/ml BSA, 20 U/ml SUPERase-In, 4 C; UNK is unkempt and MSI1 is Musashi-1; names of the RNAs are library labels; protein concentration not given here; high values mean tight binding).

**Q.** Which binding signal does the source give for B1 here?
**A.** Its binding signal is 0.604 enrichment R.

**Q.** How did the binding signal turn out when B2 was run?
**A.** Its binding signal is 0.928 enrichment R.

**Q.** How did the binding signal turn out when B3 was run?
**A.** The binding signal was 0.705 enrichment R.

**Q.** How did the binding signal turn out when B4 was run?
**A.** Its binding signal is 1.26 enrichment R.

**Q.** Which binding signal does the source give for B5 here?
**A.** Its binding signal is 0.906 enrichment R.

**Q.** For B6, which binding signal is on record?
**A.** Its binding signal is 1.34 enrichment R.

**Q.** With B7 as the binder, how does the binding signal read?
**A.** The binding signal was 1.98 enrichment R.

**Q.** For B8, which binding signal is on record?
**A.** The binding signal was 1.71 enrichment R.

**Q.** With B9 as the binder, how does the binding signal read?
**A.** Its binding signal is 0.872 enrichment R.

**Q.** For B10, which binding signal is on record?
**A.** The binding signal was 0.852 enrichment R.

**Q.** B11 was tested. Which binding signal did it give?
**A.** The binding signal was 1 enrichment R.

**Q.** How did the binding signal turn out when B12 was run?
**A.** The binding signal was 0.607 enrichment R.

**Q.** For B13, which binding signal is on record?
**A.** The binding signal was 2.4 enrichment R.

**Q.** B14 was tested. Which binding signal did it give?
**A.** Its binding signal is 0.794 enrichment R.

**Q.** How did the binding signal turn out when B15 was run?
**A.** The binding signal was 1.21 enrichment R.

**Q.** B16 was tested. Which binding signal did it give?
**A.** Its binding signal is 0.384 enrichment R.

**Q.** With B17 as the binder, how does the binding signal read?
**A.** Its binding signal is 1.15 enrichment R.

**Q.** With B18 as the binder, how does the binding signal read?
**A.** The binding signal was 0.94 enrichment R.

**Q.** B19 was tested. Which binding signal did it give?
**A.** Its binding signal is 0.585 enrichment R.

**Q.** B20 was tested. Which binding signal did it give?
**A.** The binding signal was 0.784 enrichment R.

**Q.** With B21 as the binder, how does the binding signal read?
**A.** The binding signal was 0.874 enrichment R.

**Q.** How did the binding signal turn out when B22 was run?
**A.** The binding signal was 0.931 enrichment R.
